In the supplement of paper PMC6089552:
Screen size: about 3,200 compounds; about 300 (9.4%) showed activity. The entries are a selection whose mix differs from that of the whole data set.

System: A673/TR/shEF
Test: cell viability (LOESS-normalised, relative to median of negative controls) (log2 ratio); higher = more viable cells (less compound effect), active = hit call of the paper (over 3 MAD below the median)
Details: treatment time: 72 h
How it was run: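 For three days, A673/TR/shEF Ewing sarcoma cells in 384-well plates (1,500 per well) were treated with library compounds at two or more concentrations or with DMSO controls, after doxycycline had been added or withheld 24 h beforehand to induce EWS-FLI1 shRNA knockdown. Viability was read by CellTiter-Glo luminescence on an Envision reader. The data were LOESS-corrected per plate, divided by the median of negative controls and log2-transformed.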

[1] = 0.103 µM, library screen: screen3, EWS-FLI1 expression: high (no doxycycline)
[2] = 0.103 µM, library screen: screen3, EWS-FLI1 expression: low (doxycycline-induced shRNA knockdown)
[3] = 0.308 µM, library screen: screen3, EWS-FLI1 expression: high (no doxycycline)
[4] = 0.308 µM, library screen: screen3, EWS-FLI1 expression: low (doxycycline-induced shRNA knockdown)
[5] = 0.926 µM, library screen: screen3, EWS-FLI1 expression: high (no doxycycline)
[6] = 0.926 µM, library screen: screen3, EWS-FLI1 expression: low (doxycycline-induced shRNA knockdown)
[7] = 2.8 µM, library screen: screen3, EWS-FLI1 expression: high (no doxycycline)
[8] = 2.8 µM, library screen: screen3, EWS-FLI1 expression: low (doxycycline-induced shRNA knockdown)
[9] = 8.3 µM, library screen: screen3, EWS-FLI1 expression: high (no doxycycline)
[10] = 8.3 µM, library screen: screen3, EWS-FLI1 expression: low (doxycycline-induced shRNA knockdown)
[11] = 25 µM, library screen: screen3, EWS-FLI1 expression: high (no doxycycline)
[12] = 25 µM, library screen: screen3, EWS-FLI1 expression: low (doxycycline-induced shRNA knockdown)
[13] = 0.25 µM, library screen: screen2, EWS-FLI1 expression: high (no doxycycline)
[14] = 0.25 µM, library screen: screen2, EWS-FLI1 expression: low (doxycycline-induced shRNA knockdown)
[15] = 2.5 µM, library screen: screen2, EWS-FLI1 expression: high (no doxycycline)
[16] = 2.5 µM, library screen: screen2, EWS-FLI1 expression: low (doxycycline-induced shRNA knockdown)
[17] = 0.25 µM, library screen: screen1, EWS-FLI1 expression: high (no doxycycline)
[18] = 0.25 µM, library screen: screen1, EWS-FLI1 expression: low (doxycycline-induced shRNA knockdown)
[19] = 2.5 µM, library screen: screen1, EWS-FLI1 expression: high (no doxycycline)
[20] = 2.5 µM, library screen: screen1, EWS-FLI1 expression: low (doxycycline-induced shRNA knockdown)

Measured: cell viability (log2)

CCOc1nc2cccc(C(=O)OC(C)OC(=O)OC3CCCCC3)c2n1Cc1ccc(-c2ccccc2-c2nn[nH]n2)cc1 (stereo not given)
inactive: [1] -0.0598 | [2] 0.00554 | [3] 0.0406 | [4] 0.0035 | [5] -0.0442 | [6] 0.0408 | [7] -0.0362 | [8] 0.0242 | [9] -0.0149 | [10] -0.00871 | [11] 0.0372 | [12] -0.00417

O=c1cc(O)cc(/C=C/c2ccc(O)c(O)c2)o1
inactive: [13] 0.159 | [14] 0.05 | [15] 0.0405 | [16] 0.104

Nc1ccc(S(N)(=O)=O)cc1
inactive: [1] 0.0177 | [2] 0.0584 | [17] 0.0442 | [18] 0.18 | [3] 0.117 | [4] 0.121 | [5] 0.099 | [6] 0.105 | [19] 0.0879 | [20] 0.144 | [7] 0.109 | [8] 0.0891 | [9] 0.117 | [10] 0.0979 | [11] 0.0658 | [12] 0.0937

CCCCCCCCCCCCC(C(=O)O)C(C)C(=O)O (stereo not given)
inactive: [17] 0.000833 | [18] 0.0282 | [19] 0.0686 | [20] 0.041

Nc1ncnc2c1ncn2[C@H]1C[C@H](O)[C@@H](CO)O1
inactive: [17] 0.0888 | [18] 0.137 | [19] 0.0495 | [20] 0.162

CCN1CCC[C@H]1CNC(=O)c1cc(S(N)(=O)=O)ccc1OC
inactive: [13] 0.115 | [14] 0.0959 | [15] 0.195 | [16] 0.119

COc1ccccc1NC1CC(C)N(C(=O)c2ccc(C)cc2)c2c(C)cccc21 (stereo not given)
inactive: [17] 0.107 | [18] 0.0693 | [19] 0.128 | [20] 0.111

CCCCC#Cc1nc(N)c2ncn([C@@H]3O[C@H](C(=O)NCC)[C@@H](O)[C@H]3O)c2n1
inactive: [13] 0.0647 | [14] 0.00816 | [15] 0.102 | [16] 0.139

CC(CCc1ccc(O)cc1)NCCc1ccc(O)c(O)c1 (stereo not given)
inactive: [17] -0.00471 | [18] 0.0556 | [13] 0.224 | [14] 0.115 | [19] 0.0295 | [20] 0.169 | [15] 0.183 | [16] 0.131

N[C@@H](CCC(=O)N[C@@H](CSN=O)C(=O)NCC(=O)O)C(=O)O
inactive: [13] 0.12 | [14] 0.0819 | [15] 0.104 | [16] 0.0641

CCC(C)(C)c1ccc(CC(C)CN2C[C@@H](C)O[C@@H](C)C2)cc1 (stereo not given in full)
inactive: [1] 0.114 | [2] 0.0848 | [3] -0.00054 | [4] 0.0379 | [5] 0.0992 | [6] 0.056 | [7] 0.051 | [8] 0.121 | [9] 0.0993 | [10] 0.0696 | [11] 0.0674 | [12] 0.0662

CCOC(=O)c1ccc(C#Cc2ccc3c(c2)C(C)(C)CCS3)nc1
inactive: [1] 0.0442 | [2] -0.00419 | [3] 0.0366 | [4] 0.034 | [5] -0.019 | [6] 0.0293 | [7] -0.068 | [8] 0.0113 | [9] -0.0101 | [10] 0.0754 | [11] 0.0107 | [12] 0.0951

CC[C@]12CCCN3CCc4c(n(c5ccccc45)[C@@](O)(C(=O)OC)C1)[C@@H]32
inactive: [17] 0.0647 | [18] 0.0435 | [19] 0.103 | [20] 0.075

COc1ccc(CN2CCN(Cc3ccc(C)cc3)CC2)c(OC)c1OC
inactive: [17] 0.0669 | [18] 0.0696 | [19] 0.138 | [20] 0.00566

COCCCN1C(=O)C(=Cc2sccc2C)SC1=S
inactive: [17] 0.112 | [18] 0.0557 | [19] 0.117 | [20] -0.0013

O=c1[nH]c(=O)n([C@H]2C[C@H](O)[C@@H](CO)O2)cc1/C=C/Br
inactive: [13] 0.184 | [14] 0.138 | [15] 0.072 | [16] 0.108

Cn1c(=O)c2c(ncn2CC(O)CO)n(C)c1=O (stereo not given)
inactive: [1] 0.0165 | [2] 0.0126 | [17] 0.131 | [18] 0.16 | [3] 0.00785 | [4] 0.0143 | [5] 0.0371 | [6] 0.0614 | [19] 0.188 | [20] 0.133 | [7] 0.0324 | [8] 0.0246 | [9] 0.104 | [10] 0.0719 | [11] 0.175 | [12] 0.0892
